Data reported in PMC4336329 (PLoS ONE, 2015).
Among all 310,000 compounds or so, about 2,200 (0.71%) showed an effect of 50% or more. The effect is printed as a negative number. Some of the results follow.

These molecules were tested against human ether-à-go-go-related gene (hERG) potassium channel (human, UniProt Q12809) (assay: primary screen, population patch clamp on CHO cells stably expressing hERG).
Chain of human ether-à-go-go-related gene (hERG) potassium channel (Q12809 whole entry, looked up): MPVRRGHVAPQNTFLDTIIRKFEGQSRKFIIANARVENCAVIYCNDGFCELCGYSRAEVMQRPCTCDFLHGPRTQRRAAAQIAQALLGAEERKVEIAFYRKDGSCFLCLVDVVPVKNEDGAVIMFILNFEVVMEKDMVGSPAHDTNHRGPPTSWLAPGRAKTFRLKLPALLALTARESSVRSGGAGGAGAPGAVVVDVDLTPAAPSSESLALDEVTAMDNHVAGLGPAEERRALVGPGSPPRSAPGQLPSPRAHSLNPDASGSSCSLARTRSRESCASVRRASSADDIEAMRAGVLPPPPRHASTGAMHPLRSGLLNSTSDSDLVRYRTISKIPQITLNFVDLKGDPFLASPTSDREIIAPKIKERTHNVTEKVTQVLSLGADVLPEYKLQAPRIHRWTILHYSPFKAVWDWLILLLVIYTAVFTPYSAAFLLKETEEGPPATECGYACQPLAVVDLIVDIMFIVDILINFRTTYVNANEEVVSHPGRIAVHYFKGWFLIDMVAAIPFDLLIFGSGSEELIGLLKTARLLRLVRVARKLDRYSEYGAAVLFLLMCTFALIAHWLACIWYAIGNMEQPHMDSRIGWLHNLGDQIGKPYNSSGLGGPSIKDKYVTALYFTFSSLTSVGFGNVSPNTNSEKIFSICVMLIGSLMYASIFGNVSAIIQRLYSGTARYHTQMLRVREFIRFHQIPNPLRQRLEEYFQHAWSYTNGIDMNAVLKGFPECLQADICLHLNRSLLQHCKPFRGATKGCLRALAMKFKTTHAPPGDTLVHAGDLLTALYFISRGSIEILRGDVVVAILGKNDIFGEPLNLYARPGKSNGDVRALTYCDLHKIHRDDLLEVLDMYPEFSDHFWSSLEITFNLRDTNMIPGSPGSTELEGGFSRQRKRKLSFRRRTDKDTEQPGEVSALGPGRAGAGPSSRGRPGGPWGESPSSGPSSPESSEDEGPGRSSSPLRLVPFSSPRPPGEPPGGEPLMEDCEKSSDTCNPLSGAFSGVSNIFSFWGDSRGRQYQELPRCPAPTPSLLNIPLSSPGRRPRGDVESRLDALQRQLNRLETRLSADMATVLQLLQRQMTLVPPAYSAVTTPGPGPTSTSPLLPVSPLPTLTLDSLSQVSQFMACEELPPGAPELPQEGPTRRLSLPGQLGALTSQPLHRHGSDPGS

Row | Compound | hERG current change (%, negative = inhibition) at 1uM [%]
1 | O=C(N/N=C/c1ccc(Br)o1)c1cccnc1 | 11.3
2 | O=C(/C=C/c1ccc2c(c1)OCO2)N1CCCCC1 | 15.4
3 | Fc1ccc(-c2ncc3ccccn23)cc1 | 11.3
4 | CN(CC(=O)Nc1cccc(Cl)c1)S(=O)(=O)c1ccc2c(c1)n(C)c(=O)c(=O)n2C | 1.68
5 | CN1CCC(N2CCCC(C(=O)O)C2)CC1.Cl (centres unmarked) | 15.5
6 | Cc1ccc(/C=C/C(=O)NCc2ccco2)o1 | 6
7 | COc1cccc(NC(=O)CCP(C)(=O)O)c1 | 9.18
8 | CCOCc1nnc(NC(=O)CCS(=O)(=O)Cc2ccccc2)s1 | 15.4
9 | CCCOc1ccc2oc(=O)c3c(c2c1)CCCN3C(=O)CN(C)Cc1ccccc1 | 5.33
10 | Cc1oc(-c2cccc(Cl)c2)nc1CN1CCC(C(=O)NCCCN2CCCC2=O)CC1 | -7.23
11 | Cc1nc2ccccn2c(=O)c1NC(=O)c1cccs1 | 6.9
12 | COc1ccc(NC(=O)CN(c2ccc(C(C)C)cc2)S(=O)(=O)c2c(C)noc2C)cc1OC | 12.7
13 | Cc1ccc(SC2=C(Sc3ccc(C)cc3)C(=O)c3ccccc3C2=O)cc1 | 13.8
14 | Cc1onc(-c2ccccc2Cl)c1C(=O)Nc1nnc(-c2cccc([N+](=O)[O-])c2)s1 | 16.6
15 | O=C(COc1coc(CN2CCc3ccccc3C2)cc1=O)Nc1cccc(F)c1 | 8
16 | O=C(Cn1cnc2scc(-c3ccccc3)c2c1=O)NCc1ccco1 | 1.92
17 | CC1(C)CC2(CCO1)NCCN1C(=O)CSC12 (centres unmarked) | 9.54
18 | O=C(CSc1nc2ccccc2c(=O)n1CCCC(=O)N1CCCC1)NCc1ccco1 | -30.9
19 | COc1ccccc1/C=C(/NC(=O)c1ccccc1)C(=O)NCCCn1ccnc1 | 13.6
20 | Cc1ccc(-c2nc3ccccc3nc2Cl)cc1 | 0.662
21 | CC(Oc1cccc2c1OC(C)(C)C2)C(=O)O (centres unmarked) | 0.668
22 | O=C(/C=C/c1ccc(F)cc1)N1CCCc2ccccc21 | 1.9
23 | O=C(CNC(=O)c1ccco1)Nc1ccc2c(c1)OCCO2 | 12.7
24 | CCOc1cc(C=O)ccc1OCC(=O)N1CCCC1 | 13.2
25 | O=C(NNC(=S)Nc1ccccc1)Nc1ccccc1 | 13.8
26 | O=C(Cn1[nH]c(=O)c2ccccc2c1=O)Nc1cccnc1 | 9.58
